Data as given in PubChem BioAssay AID624296 (National Center for Advancing Translational Sciences (NCATS), 2012).
Values joined by “and” are separate entries in the source; they are usually repeats but may differ in a detail not shown here. Equal values may be shown once. Hit rate of the full screen: of about 350,000 compounds, about 9,900 (2.8%) were called active. This list was built around the results that the source calls inconclusive (neither active nor inactive); the mix of calls is not that of the screen. Calls come from the whole dose curve; as a rule, active = well fitted activation curve with a large enough effect; inconclusive = small, poorly fitted or top-dose-only effect; inactive = no such curve, though single readings can be large or run the other way. Potencies of inconclusive entries are doubtful fits and often do not repeat.

test: A quantitative high throughput screen for small molecules that induce DNA re-replication in MCF 10a normal breast cells.; note: nearly all actives have a fitted effect of over 50% in size; for activity, positive = re-replication: % of control where 0% means no effect; details: MCF 10A DNA re-replication, Hoechst nuclear intensity, 48 h; activity, positive = re-replication: at 46.1 µM (top of the series)
Potency is the fitted concentration of half-maximal effect; tags give direction and shape of the fitted curve.

SMILES	Potency	activity, positive = re-replication
COc1ccc(Cc2nnc(NC(=O)Nc3ccccc3)s2)cc1OC	inconclusive: 29.1 µM [activator, single point]	
CCOc1ccc(C(C(=O)NCC2CCCO2)N(C(=O)c2snc(C(N)=O)c2N)c2ccc(F)cc2)cc1 (configuration not stated)	inconclusive: 18.4 µM [activator, partial curve, poor fit]	
CC(C)(C)c1ccc(C(=O)NCCC(=O)Nc2ccc(S(=O)(=O)Nc3nccs3)cc2)cc1	inconclusive: 0.13 µM [activator, full curve, poor fit]	
C/C(=N\NC(=O)CN1CCOCC1)C(C)(C)C	inconclusive: 29.1 µM [activator, single point]	
O=C(COC(=O)c1ccc2ncsc2c1)Nc1ccc(Cl)cc1	inconclusive: 29.1 µM [activator, single point]	
COc1ccc(C(C(=O)NCC2CCCO2)N(Cc2ccco2)C(=O)c2snc(C(N)=O)c2N)cc1OC (configuration not stated)		inactive: -0.91%
CN(Cc1ccc(F)cc1)S(=O)(=O)c1nnc(NC(=O)c2ccccc2)s1	inconclusive: 29.1 µM [activator, single point]	
Cn1cnc2c1c(=O)n(Cc1cccc(Cl)c1)c(=O)n2C		inactive: 0.406%
COCCOC(=O)c1c(NC(=O)CNc2ccc(C)c(F)c2)sc(C(N)=O)c1C	inconclusive: 0.13 µM [activator, full curve, poor fit]	
CC(=O)Nc1ccc(S(=O)(=O)NC2=C(N3CCN(Cc4ccccc4)CC3)C(=O)c3ccccc3C2=O)cc1	inconclusive: 25.9 µM [activator, single point] and inconclusive: 29.1 µM [activator, single point]	
O=C1C2CC=CCC2C(=O)N1Cc1nnc(-c2ccc(Cl)cc2)o1 (configuration not stated)	inconclusive: 1.16 µM [activator, partial curve, poor fit]	
O=C(CCl)Nc1cc(S(=O)(=O)N2CCCCCC2)ccc1Cl	inconclusive: 29.1 µM [activator, single point]	
COc1ccc(-c2c(C)nc(N)nc2-c2ccc(OCc3ccc(C)cc3)cc2O)cc1OC	inconclusive: 29.1 µM [activator, single point]	
CC(C)(C)c1cccc(P(=O)(c2ccccc2)c2ccccc2)c1O	inconclusive: 23.1 µM [activator, single point]	
Cc1ccc(-n2nc(-c3ccco3)cc2C(=O)NCc2cccnc2)cc1	inconclusive: 20 µM [activator, single point]	
CCc1ccc(NS(=O)(=O)c2ccc(OC)c(C)c2)cc1	inconclusive: 20.6 µM [activator, partial curve, poor fit]	
CC(=O)c1ccc(N2CCN(C(=O)COc3ccc4c(c3)CCC4)CC2)cc1		inactive: -31.5%
COc1ccc2c(-c3ccc(SC)cc3)c(-c3ccc(S(C)(=O)=O)cc3)sc2c1	inconclusive: 20.6 µM [activator, single point]	
O=C(Nc1cccc(Cl)c1)Nc1ccc2nccnc2c1	inconclusive: 29.1 µM [activator, single point]	
COc1cccc(/C=C/c2nc(C#N)c(NCC(C)C)o2)c1	active: 3.26 µM	
CCOC(=O)N1CCN(C(=O)c2cc3c(s2)-c2ccc(Cl)cc2S(=O)(=O)C3)CC1	inconclusive: 1.16 µM [activator, single point]	
C=C(C)COc1ccc(-c2n[nH]c(C)c2-c2ccccc2)c(O)c1	inconclusive: 18.4 µM [activator, single point]	
CCOc1ccc2cc(C3CC(c4ccco4)=NN3S(C)(=O)=O)c(=O)[nH]c2c1 (configuration not stated)		inactive: -0.947%

SMILES	Potency	activity, positive = re-replication
Cc1ccc(-c2ccccc2NC(=O)CCl)o1	inconclusive: 25.9 µM [activator, single point]	
O=C(CN1CCc2ccccc2C1)Nc1ccc(F)cc1		inactive: -5.6%
Cc1ccc(-c2n[nH]c(=S)n2/N=C/c2cccs2)cc1		inactive: -10.1%
CCOC(=O)C1=C(C)NC(=O)N(C(C)=O)C1c1ccc(Cl)cc1 (configuration not stated)	inconclusive: 29.1 µM [activator, single point]	
O=[N+]([O-])c1ccc(Cl)cc1Sc1nc2ccccc2o1		inactive: 0.521%
Cc1ccc(NC(=O)C2CCN(C(=O)NCc3ccccc3)CC2)cc1C		inactive: -2.75%
CCC1(c2ccccc2)NC(=O)N(CC(=O)Nc2ccc(OC)nc2)C1=O (configuration not stated)	inconclusive: 4.61 µM [activator, single point]	
Cc1cc(C)cc(N/C(N)=N/c2nc(C)cc(C)n2)c1	inconclusive: 32.6 µM [activator, partial curve, poor fit]	
COc1ccc(Cn2c(SCc3ccc(C)cc3)nc3cc(OC)c(OC)cc3c2=N)cc1Cl	active: 4.11 µM	
CN(CCO)S(=O)(=O)c1ccc2c(c1)C(=NN)c1cc(S(=O)(=O)N(C)CCO)ccc1-2	inconclusive: 2.91 µM [activator, single point]	
CCn1cc(C(=O)OCC(=O)c2cc(C)n(-c3ccc(OC(F)F)cc3)c2C)c(=O)c2ccc(C)nc21	active: 13 µM	
CCN(CC)S(=O)(=O)c1ccc(NC(=O)C(C)N(c2ccc(OC)cc2)S(C)(=O)=O)cc1 (configuration not stated)		inactive: 11%
O=S(=O)(c1cnc(Cl)c(Cl)c1)N1CCc2ccccc21	inconclusive: 20.6 µM [activator, single point]	
CSc1ccc(/C=N/NC(=O)c2ccc(C)c(C)c2)cc1	inconclusive: 18.4 µM [activator, partial curve, poor fit]	
COc1ccc([C@H]2CC(=O)C=C(c3cc(F)ccc3OC)C2)cc1	active: 20.6 µM	
COc1cc(C2NC(=O)NC(C)=C2C(=O)OC2CCCCC2)cc(Cl)c1O (configuration not stated)	inconclusive: 29.1 µM [activator, single point]	
COc1cccc(Oc2cn[nH]c2-c2ccc(OC)cc2O)c1	inconclusive: 18.4 µM [activator, single point]	
O=C(O)c1ccccc1SC1CC(=O)N(c2cccc3ccccc23)C1=O (configuration not stated)	inconclusive: 9.2 µM [activator, partial curve]	
c1ccc(NCCC2OCC3(CO2)COC(CCNc2ccccc2)OC3)cc1 (configuration not stated)	inconclusive: 14.6 µM [activator, partial curve, poor fit]	
COCc1cc(=O)[nH]c(/N=C(\N)Nc2ccc(C)cc2)n1		inactive: 0.238%
CC(=O)c1c(C)[nH]c(C(=O)COC(=O)c2cccc(S(=O)(=O)N(C)c3ccccc3)c2)c1C	inconclusive: 29.1 µM [activator, single point]	
O=C(Cc1ccccc1)N1CCC2(CC1)NCCc1[nH]cnc12	inconclusive: 29.1 µM [activator, single point]	
O=C(C(=Cc1ccc(F)cc1)c1ccccc1)c1ccc(O)cc1	inconclusive: 20.6 µM [activator, single point]	

SMILES	Potency	activity, positive = re-replication
CCS(=O)(=O)N1Cc2ccccc2CC1C(=O)NCC12CC3CC(CC(C3)C1)C2 (configuration not stated)		inactive: 4.72%
CCOc1cc(CNCCSc2nnnn2C)cc(Br)c1OCc1ccccc1F	inconclusive: 7.31 µM [activator, partial curve]	
CCN=C1S/C(=C\c2ccc(Sc3ccc(Cl)cc3)o2)C(=O)N1CC	inconclusive: 8.91 µM [activator, partial curve, poor fit]	
CCN(CC)c1ccc2cc(C(C)=O)c(=O)oc2c1	active: 10 µM	
CC(=O)c1cccc(S(=O)(=O)NC2CCCCCC2)c1	inconclusive: 6.51 µM [activator, single point]	
COc1ccc(C(=O)/C=C2/C(=O)Nc3ccccc32)cc1OC	active: 8.2 µM	
COc1cccc(/C=C/C2=CC(C)(C)NC(=S)N2)c1	inconclusive: 20.6 µM [activator, single point]	
CC(=O)c1ccc(S(=O)(=O)N(C)CC(=O)Nc2cc(C)on2)cc1		inactive: -2.89%
CCOCCc1nnc(NC(=O)C2CC(=O)N(c3ccc(OCC)cc3)C2)s1 (configuration not stated)	inconclusive: 0.082 µM [activator, full curve, poor fit]	
CC(C)CN1CCN(Cc2cccc3cccnc23)CC1CCO (configuration not stated)	inconclusive: 29.1 µM [activator, single point]	
COc1ccc(CCNC(=O)/C(C#N)=C2\N=C(NC(=O)c3cccs3)c3ccccc32)cc1	inconclusive: 10.3 µM [activator, partial curve, poor fit]	
Cc1ccc(C(CNC(=O)Nc2ccc(Cl)cc2)N2CCN(C)CC2)cc1 (configuration not stated)		inactive: 15.3%
Cc1ccccc1Cn1c2ccccc2c2cnn(CC(=O)N3CCN(c4ccccc4)CC3)c(=O)c21		inactive: 0.491%
Cc1ccc(-c2csc3ncnc(Nc4ccc(N5CCOCC5)cc4)c23)cc1	inconclusive: 7.31 µM [activator, partial curve]	
Cc1ccc(OCC(=O)c2cc(C)n(C)c2C)c([N+](=O)[O-])n1	inconclusive: 29.1 µM [activator, single point]	
COc1ccc([C@H]2CC(=O)C=C(c3ccc(OC)cc3OC)C2)cc1	inconclusive: 9.2 µM [activator, partial curve, poor fit]	
COC(=O)c1sc(S(=O)(=O)Nc2ccc(C)c(C)c2)c(C(=O)OC)c1C		inactive: 0.83%
CCOC(=O)C1=C(C)N(C)C(C)=C(C(=O)OCC)C1c1ccc(Cl)cc1	active: 23.1 µM	
COc1ccc(CNCCC(c2ccc(OC(C)C)cc2)C(C)C)cc1OC (configuration not stated)	inconclusive: 18.4 µM [activator, single point]	
Cc1ccc(-n2nc(C)c3c(-c4cccs4)c(C#N)c(N)nc32)cc1	active: 8.2 µM	
Cc1ccc(S(=O)(=O)c2c(N)n(CC3CCOC3)c3nc4ccccc4nc23)cc1 (configuration not stated)		inactive: 0.106%
